This passage reports enrichment ratio results from a collection of fitness landscapes (doi:10.1126/science.1257360).

B1: PhoQ; a variant is named by its letters at X, in order, P23837 (parent)
chain: MKKLLRLFFPLSLRVRFLLATAAVVLVLSLAYGMVALIGYSVSFDKTTFRLLRGESNLFYTLAKWENNKLHVELPENIDKQSPTMTLIYDENGQLLWAQRDVPWLMKMIQPDWLKSNGFHEIEADVNDTSLLLSGDHSIQQQLQEVREDDDDAEMTHSVAVNVYPATSRMPKLTIVVVDTIPVELKSSYMVWSWFIYVLSANLLLVIPLLWVAAWWSLRPIEALAKEVRELEEHNRELLNPATTRELTSLVRNLNRLLKSERERYDKYRTTLTDLTHSLKTPLXXLQXXLRSLRSEKMSVSDAEPVMLEQISRISQQIGYYLHRASMRGGTLLSRELHPVAPLLDNLTSALNKVYQRKGVNISLDISPEISFVGEQNDFVEVMGNVLDNACKYCLEFVEISARQTDEHLYIVVEDDGPGIPLSKREVIFDRGQRVDTLRPGQGVGLAVAREITEQYEGKIVAGESMLGGARMEVIFGRQHSAPKDE

This is one part of the list.

The variants in the assay derive from B1. Nature of the assay: enrichment ratio after two sorts for PhoP signalling (ratio (wild type AVST 3.29)); higher = more functional. The note with it: with PhoP (E. coli).
Consider HSSP, for which the enrichment ratio was not above 0.25. The same measure for EIAR: not above 0.25; for NNGC: not above 0.25.

On to TYLI, for which the enrichment ratio was determined as 1.56.

As to FRKP, the enrichment ratio is not above 0.25. Under RIEG stands not above 0.25; under AYMI, 0.272. Under IEWH stands not above 0.25; under QHPH, not above 0.25. The same measure for IFGV: not above 0.25. Take LYFI: the enrichment ratio was not above 0.25. The same measure for YERA: not above 0.25; for LIRS: not above 0.25; for RVVF: not above 0.25. The same measure for WDQA: not above 0.25. VPIM: the enrichment ratio is not above 0.25.

Take EHHS: the enrichment ratio was not above 0.25. With IFNM, the enrichment ratio is not above 0.25. Under IDVY stands not above 0.25; under VSGC, not above 0.25. The same measure for RPED: not above 0.25; for KDQP: not above 0.25. As to YSYF, the enrichment ratio was not above 0.25. Under SRWQ stands not above 0.25; under MTMH, not above 0.25. As for DDNV, the enrichment ratio was not above 0.25. Under REPI stands not above 0.25.

Take HEHH: the enrichment ratio was not above 0.25.

For DSGE, the enrichment ratio was not above 0.25.

Consider GLDR, for which the enrichment ratio was not above 0.25. The same measure for DCLY: not above 0.25; for TTVH: 0.84; for MWYH: not above 0.25. The same measure for NEQP: not above 0.25; for IKFQ: not above 0.25; for HKFW: not above 0.25. The same measure for TGIV: not above 0.25. Turning to KVPI, the enrichment ratio was not above 0.25. The same measure for HNMR: not above 0.25. The same measure for QITA: not above 0.25. The same measure for RTMW: not above 0.25. Regarding SVTL, the enrichment ratio was 12.2.

Turning to NSQG, the enrichment ratio was not above 0.25. For the variant VMQH, the enrichment ratio is not above 0.25. Under RFYS stands not above 0.25; under VCCI, not above 0.25; under ADQA, not above 0.25.

For the variant LDWA, the enrichment ratio was not above 0.25. Under PSGL stands not above 0.25; under RPKW, not above 0.25; under VKVE, not above 0.25. The same measure for FFEP: not above 0.25. ALHV: the enrichment ratio is not above 0.25. The same measure for YDLL: not above 0.25. The same measure for CRFF: not above 0.25; for QEEY: not above 0.25. As to QWLD, the enrichment ratio is not above 0.25. Turning to LMEQ, the enrichment ratio was not above 0.25. Under TNAR stands not above 0.25; under DYPP, not above 0.25. The same measure for RHPM: not above 0.25; for QNNP: not above 0.25; for TIVH: not above 0.25. Under FNMD stands not above 0.25; under AYEP, not above 0.25. Take RGPA: the enrichment ratio was not above 0.25.

In the case of QICW, the enrichment ratio is not above 0.25. Under FLQH stands not above 0.25. In the case of PNTM, the enrichment ratio was not above 0.25. Under LFKP stands not above 0.25; under ALDR, not above 0.25; under LMHY, not above 0.25. The same measure for WDID: not above 0.25.

Turning to HHVR, the enrichment ratio was not above 0.25. The same measure for NCTN: not above 0.25; for GTCT: not above 0.25; for WPHY: not above 0.25.

Consider DLCF, for which the enrichment ratio was not above 0.25. On to AQAH, for which the enrichment ratio turned out to be 0.951. Under LVHV stands not above 0.25; under IFPC, not above 0.25.

Turning to IAEG, the enrichment ratio is not above 0.25. The same measure for LERL: not above 0.25. The same measure for MRAE: not above 0.25; for HHTI: not above 0.25. For EKSY, the enrichment ratio was not above 0.25. The same measure for AYGN: not above 0.25; for MKGL: not above 0.25. The same measure for MCRT: not above 0.25. Under WRDW stands not above 0.25; under HVVR, not above 0.25. Take HSTM: the enrichment ratio was found to be 13.1. Under SVFQ stands not above 0.25; under NENT, not above 0.25.

Regarding NQRM, the enrichment ratio is not above 0.25.

Take FIKD: the enrichment ratio was not above 0.25. The same measure for TGTE: 4.09; for PRPF: not above 0.25. The same measure for SSPT: not above 0.25.

Turning to WECA, the enrichment ratio is not above 0.25. Take RGML: the enrichment ratio is not above 0.25. Under TVHE stands not above 0.25; under FGID, not above 0.25; under YWIL, not above 0.25. In the case of LPPF, the enrichment ratio is not above 0.25. Under PHPF stands not above 0.25. Under WEVY stands not above 0.25; under WKLG, not above 0.25; under RMGS, not above 0.25.

In the case of ATMQ, the enrichment ratio amounted to 3.23. Under LHYI stands not above 0.25; under EFSD, not above 0.25; under NSME, not above 0.25. For the variant PWAA, the enrichment ratio is not above 0.25.

Turning to MRWS, the enrichment ratio was not above 0.25.

With QQRI, the enrichment ratio is not above 0.25. The same measure for YLAC: not above 0.25; for FYQE: not above 0.25. Under REQF stands not above 0.25; under NRDR, not above 0.25; under WQSW, not above 0.25. The same measure for RAKC: not above 0.25; for ASHV: not above 0.25; for REIQ: not above 0.25. For the variant NSLS, the enrichment ratio is not above 0.25.

As to TSIP, the enrichment ratio was not above 0.25. The same measure for TDGL: not above 0.25; for FPFP: not above 0.25. Regarding YRLR, the enrichment ratio was not above 0.25. Take PLCG: the enrichment ratio was not above 0.25. VHAE: the enrichment ratio is not above 0.25. The same measure for MTFC: not above 0.25; for LFNL: not above 0.25; for FNGW: not above 0.25. Under SSAE stands 10.5. The same measure for PINY: not above 0.25; for RNLD: not above 0.25; for TICS: 13. As to CFIA, the enrichment ratio is not above 0.25. For LKRW, the enrichment ratio is not above 0.25. The same measure for VAQP: not above 0.25; for VQHV: not above 0.25; for VMTW: not above 0.25. The same measure for YVWI: not above 0.25; for KVNA: not above 0.25; for NDAW: not above 0.25. As to VRLH, the enrichment ratio is not above 0.25.

As to FTEV, the enrichment ratio is not above 0.25. As to FPSG, the enrichment ratio was not above 0.25. Under YWLL stands not above 0.25; under KHYY, not above 0.25; under MADV, not above 0.25. The same measure for QRWL: not above 0.25; for ARWH: not above 0.25. For the variant VEMA, the enrichment ratio is not above 0.25. Under RVCR stands not above 0.25.

With YLDK, the enrichment ratio is not above 0.25. Take IYIF: the enrichment ratio was not above 0.25. Under GCPV stands not above 0.25. The same measure for IAHR: not above 0.25.

For the variant TETL, the enrichment ratio is 9.9. The same measure for ERLH: not above 0.25. Under NKIH stands not above 0.25; under ELEF, not above 0.25. LDEF: the enrichment ratio is not above 0.25. Under SVDW stands not above 0.25; under GYID, not above 0.25; under WKRV, not above 0.25. Turning to AIGA, the enrichment ratio was not above 0.25.

Consider ECNY, for which the enrichment ratio is not above 0.25. On to QKNI, for which the enrichment ratio was not above 0.25. Under WFTE stands not above 0.25; under HCQF, not above 0.25. Under DLRS stands not above 0.25; under ANPC, not above 0.25; under GFNR, not above 0.25. The same measure for GWIM: not above 0.25; for KRQE: not above 0.25. With TITT, the enrichment ratio came out at 6.6. For LVTV, the enrichment ratio is not above 0.25. The same measure for PYKD: not above 0.25; for YAKT: not above 0.25; for DTNM: not above 0.25. Under DYTQ stands not above 0.25.

As to PADC, the enrichment ratio is not above 0.25. The same measure for AMWF: not above 0.25; for PYDG: not above 0.25; for NDGI: not above 0.25. The same measure for PCGG: not above 0.25.

For IKVN, the enrichment ratio is not above 0.25. The same measure for YRRY: not above 0.25; for FDGV: not above 0.25; for MCFE: not above 0.25. Under YECH stands 6.45; under RPMH, not above 0.25. As for VVLF, the enrichment ratio was not above 0.25. The same measure for WWHA: not above 0.25. Under IWCD stands not above 0.25. For WNDR, the enrichment ratio was not above 0.25. The same measure for IWLL: not above 0.25. The same measure for GMDL: not above 0.25. Under WGIH stands not above 0.25.

As for SMLC, the enrichment ratio was determined as 3.5.

As for MDFC, the enrichment ratio is not above 0.25. Under LAGL stands not above 0.25; under LHEW, not above 0.25; under FCHH, not above 0.25. Under QRFV stands not above 0.25.

On to GPHF, for which the enrichment ratio was not above 0.25. DRNV: the enrichment ratio was not above 0.25. The same measure for DPPN: not above 0.25; for FVKQ: not above 0.25. The same measure for TWAK: not above 0.25; for DHSC: not above 0.25. Under DFCM stands not above 0.25; under QIMQ, not above 0.25; under VYLS, not above 0.25. As to VNEE, the enrichment ratio is not above 0.25. The same measure for YHFA: not above 0.25; for LFLS: not above 0.25; for GLMF: 1.04. Under YQFI stands not above 0.25; under NTPL, not above 0.25.

On to TFWL, for which the enrichment ratio is not above 0.25. As to FLCG, the enrichment ratio was not above 0.25.

Take WTGL: the enrichment ratio is not above 0.25. Under YCYM stands not above 0.25; under WTSM, not above 0.25. The same measure for NKRA: not above 0.25; for VVPR: not above 0.25; for HDLM: not above 0.25.

Take DESV: the enrichment ratio is not above 0.25. MIWA: the enrichment ratio was not above 0.25. The same measure for RPIS: not above 0.25. The same measure for GYLH: not above 0.25; for YEPL: not above 0.25.

With TDSW, the enrichment ratio was not above 0.25. For FHTH, the enrichment ratio was not above 0.25. The same measure for MHPT: not above 0.25; for NRHT: not above 0.25. Regarding LLVD, the enrichment ratio is not above 0.25. As for CLCM, the enrichment ratio was not above 0.25. Turning to VMPD, the enrichment ratio is not above 0.25. The same measure for TYTA: 5.82; for TWLN: not above 0.25.

On to WQYQ, for which the enrichment ratio was not above 0.25.

As for RLAF, the enrichment ratio was not above 0.25. With MLIH, the enrichment ratio is not above 0.25. Turning to GPYV, the enrichment ratio is not above 0.25.

For the variant RQPV, the enrichment ratio is not above 0.25.

EIHS: the enrichment ratio is not above 0.25. The same measure for MDTH: not above 0.25; for MQRW: not above 0.25. In the case of NIIH, the enrichment ratio is not above 0.25.

As to ADYG, the enrichment ratio is not above 0.25. The same measure for MSAP: not above 0.25; for TAEA: not above 0.25; for PAEP: not above 0.25. The same measure for LLAF: not above 0.25; for STMM: 18.6; for PTWP: not above 0.25.

As to EVIW, the enrichment ratio was not above 0.25. YRNH: the enrichment ratio is not above 0.25. Turning to VRNR, the enrichment ratio was not above 0.25. As for VHNG, the enrichment ratio was not above 0.25. Under AKYW stands not above 0.25; under VMMM, not above 0.25; under FEVR, not above 0.25.

In the case of ESGN, the enrichment ratio is not above 0.25. Turning to DNGM, the enrichment ratio is not above 0.25. Turning to PAGR, the enrichment ratio was not above 0.25.

Take PLNC: the enrichment ratio was not above 0.25. Under DDST stands 2.65; under YLHL, not above 0.25. Under YWYC stands not above 0.25; under VCHV, not above 0.25; under SPMI, not above 0.25. For RPYV, the enrichment ratio is not above 0.25.

Consider YHYY, for which the enrichment ratio was not above 0.25. Under LGHA stands not above 0.25; under RRCA, not above 0.25. As for IFKN, the enrichment ratio was not above 0.25. Take WFRC: the enrichment ratio was not above 0.25. Under YQLI stands not above 0.25; under ARNP, not above 0.25. Under SICH stands 10.3; under TMIN, not above 0.25. Under QWAL stands not above 0.25; under LGIN, not above 0.25. Turning to AIWR, the enrichment ratio was not above 0.25. Under TTQD stands not above 0.25; under RDNG, not above 0.25. Take SIID: the enrichment ratio is not above 0.25. As to MHIN, the enrichment ratio is not above 0.25.

In the case of QDHK, the enrichment ratio was not above 0.25. Under PYAG stands not above 0.25; under LRDI, not above 0.25; under PMTY, not above 0.25. QPCP: the enrichment ratio is not above 0.25. Under FNEE stands not above 0.25; under YPVR, not above 0.25; under AYSW, not above 0.25. The same measure for KKMF: not above 0.25; for AIAR: 19.7; for YPMT: not above 0.25. Under IFNW stands not above 0.25.
